This passage reports cell viability results from the supplement of paper PMC9588766.

Counter-ions that a name gives are not always drawn. In all, about 1,900 compounds were measured (“cell viability of compound + 1 nM pemigatinib relative to pemigatinib-only (DMSO) wells”: median about 0.95, lowest 2% from about 0.22 on). The list shows a part of the results.

For the assay, the system named is PDC-DUC18828. Kind of assay: cell viability of compound + 1 nM pemigatinib relative to pemigatinib-only (DMSO) wells (fraction); PDC-DUC18828 is a patient-derived cholangiocarcinoma cell line; higher = less growth inhibition. The settings on record: first compound 1 µM; pemigatinib concentration 1 nM; 72 h. On the procedure:
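Selleck Bioactive library screen in the patient-derived FGFR2 fusion-positive ICC cell line PDC-DUC18828 (500 cells/well). Each compound was tested at 1 uM with 1 nM pemigatinib, in triplicate, for 72 h. Viability was read by CellTiter-Glo and normalised to plate DMSO controls. Value is the paper's averaged normalised viability.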
With `Nc1[nH]nc2nnc(-c3c(-c4ccccc4)nn4ccccc34)cc12` + CCN1C(=O)N(c2c(F)c(OC)cc(OC)c2F)Cc2cnc3[nH]c(CN4CCOCC4)cc3c21 [pemigatinib], the cell viability stood at 1.03. To `CC1(C)S[C@@H]2[C@H](NC(=O)C(C(=O)O)c3ccccc3)C(=O)N2[C@H]1C(=O)O` (some centres undefined) [Carbenicillin disodium] + CCN1C(=O)N(c2c(F)c(OC)cc(OC)c2F)Cc2cnc3[nH]c(CN4CCOCC4)cc3c21 [pemigatinib] belongs 0.929; to `CC(C)N(CCCNC(=O)Nc1ccc(C(C)(C)C)cc1)C[C@H]1O[C@@H](n2cc(Br)c3c(N)ncnc32)[C@H](O)[C@@H]1O` + CCN1C(=O)N(c2c(F)c(OC)cc(OC)c2F)Cc2cnc3[nH]c(CN4CCOCC4)cc3c21 [pemigatinib], 0.957. To `CC(C)(C)C(=O)C(Oc1ccc(Cl)cc1)n1ccnc1` (centres undefined) [Climbazole] + CCN1C(=O)N(c2c(F)c(OC)cc(OC)c2F)Cc2cnc3[nH]c(CN4CCOCC4)cc3c21 [pemigatinib] belongs 1.02; to `CCCCNc1cc(C(=O)O)cc(S(N)(=O)=O)c1Oc1ccccc1` [Bumetanide] + CCN1C(=O)N(c2c(F)c(OC)cc(OC)c2F)Cc2cnc3[nH]c(CN4CCOCC4)cc3c21 [pemigatinib], 1.04. To `C[C@H](Cn1cnc2c(N)ncnc21)OCP(=O)(O)O` [Tenofovir] + CCN1C(=O)N(c2c(F)c(OC)cc(OC)c2F)Cc2cnc3[nH]c(CN4CCOCC4)cc3c21 [pemigatinib] belongs 0.974; to `O=c1ccn([C@@H]2O[C@H](CO)[C@@H](O)[C@H]2O)c(=O)[nH]1` [Uridine] + CCN1C(=O)N(c2c(F)c(OC)cc(OC)c2F)Cc2cnc3[nH]c(CN4CCOCC4)cc3c21 [pemigatinib], 0.97. Turning to `CC(C)n1c(/C=C/C(O)CC(O)CC(=O)O)c(-c2ccc(F)cc2)c2ccccc21` (centres undefined) [Fluvastatin Sodium] + CCN1C(=O)N(c2c(F)c(OC)cc(OC)c2F)Cc2cnc3[nH]c(CN4CCOCC4)cc3c21 [pemigatinib], the cell viability is 0.811. To `Cc1ccnc(NS(=O)(=O)c2ccc(N)cc2)n1` [Sulfamerazine] + CCN1C(=O)N(c2c(F)c(OC)cc(OC)c2F)Cc2cnc3[nH]c(CN4CCOCC4)cc3c21 [pemigatinib] belongs 0.864. To `NC(=O)OCC(COC(N)=O)c1ccccc1` [Felbamate] + CCN1C(=O)N(c2c(F)c(OC)cc(OC)c2F)Cc2cnc3[nH]c(CN4CCOCC4)cc3c21 [pemigatinib] belongs 0.988; to `CCC[S+]([O-])c1ccc2[nH]c(NC(=O)OC)nc2c1` (centres undefined) [Albendazole Oxide] + CCN1C(=O)N(c2c(F)c(OC)cc(OC)c2F)Cc2cnc3[nH]c(CN4CCOCC4)cc3c21 [pemigatinib], 0.951; to `COC(=O)Nc1ccc(-c2nc(N3CCOCC3)c3cnn(C4CCN(C(=O)OC)CC4)c3n2)cc1` + CCN1C(=O)N(c2c(F)c(OC)cc(OC)c2F)Cc2cnc3[nH]c(CN4CCOCC4)cc3c21 [pemigatinib], 0.955.

In the case of `COC(=O)N[C@H](C(=O)N[C@@H](Cc1ccccc1)[C@@H](O)CN(Cc1ccc(-c2ccccn2)cc1)NC(=O)[C@@H](NC(=O)OC)C(C)(C)C)C(C)(C)C` [Atazanavir Sulfate] + CCN1C(=O)N(c2c(F)c(OC)cc(OC)c2F)Cc2cnc3[nH]c(CN4CCOCC4)cc3c21 [pemigatinib], the cell viability turned out to be 1. Consider `CNC[C@H](O)[C@@H](O)[C@H](O)[C@H](O)CO` [Meglumine] + CCN1C(=O)N(c2c(F)c(OC)cc(OC)c2F)Cc2cnc3[nH]c(CN4CCOCC4)cc3c21 [pemigatinib], for which the cell viability was determined as 1.01. To `O=c1cc(-c2ccccc2)oc2cc(O)c(O)c(O)c12` [Baicalein] + CCN1C(=O)N(c2c(F)c(OC)cc(OC)c2F)Cc2cnc3[nH]c(CN4CCOCC4)cc3c21 [pemigatinib] belongs 1. To `COc1cc(C2Oc3cc([C@H]4Oc5cc(O)cc(O)c5C(=O)[C@@H]4O)ccc3OC2CO)ccc1O` (some centres undefined) [Silibinin] + CCN1C(=O)N(c2c(F)c(OC)cc(OC)c2F)Cc2cnc3[nH]c(CN4CCOCC4)cc3c21 [pemigatinib] belongs 0.976; to `COc1cc(C2Oc3cc([C@H]4Oc5cc(O)cc(O)c5C(=O)[C@@H]4O)ccc3OC2CO)ccc1O` (some centres undefined) [Silymarin] + CCN1C(=O)N(c2c(F)c(OC)cc(OC)c2F)Cc2cnc3[nH]c(CN4CCOCC4)cc3c21 [pemigatinib], 0.938; to `O=C(O)Cc1cccc(OCCCN(Cc2cccc(C(F)(F)F)c2Cl)CC(c2ccccc2)c2ccccc2)c1` + CCN1C(=O)N(c2c(F)c(OC)cc(OC)c2F)Cc2cnc3[nH]c(CN4CCOCC4)cc3c21 [pemigatinib], 1.02. To `CC(=O)N[C@@H](CS)C(=O)O` [Acetylcysteine] + CCN1C(=O)N(c2c(F)c(OC)cc(OC)c2F)Cc2cnc3[nH]c(CN4CCOCC4)cc3c21 [pemigatinib] belongs 1.1. As to `C[C@]1(c2nc3c(C(N)=O)cccc3[nH]2)CCCN1` [Veliparib (ABT-888)] + CCN1C(=O)N(c2c(F)c(OC)cc(OC)c2F)Cc2cnc3[nH]c(CN4CCOCC4)cc3c21 [pemigatinib], the cell viability came out at 1.03. To `O=C1CCC[C@@H]2[C@H]3CCC[N+]4([O-])CCC[C@@H](CN12)[C@@H]34` (some centres undefined) [Oxymatrine] + CCN1C(=O)N(c2c(F)c(OC)cc(OC)c2F)Cc2cnc3[nH]c(CN4CCOCC4)cc3c21 [pemigatinib] belongs 0.974; to `COc1cccc2cc(-c3nc([C@H]4CC[C@H](C(=O)O)CC4)n4ncnc(N)c34)[nH]c12` + CCN1C(=O)N(c2c(F)c(OC)cc(OC)c2F)Cc2cnc3[nH]c(CN4CCOCC4)cc3c21 [pemigatinib], 0.241; to `Clc1ccc(C(Cn2ccnc2)OCc2ccc(Sc3ccccc3)cc2)c(Cl)c1` (centres undefined) [Fenticonazole Nitrate] + CCN1C(=O)N(c2c(F)c(OC)cc(OC)c2F)Cc2cnc3[nH]c(CN4CCOCC4)cc3c21 [pemigatinib], 0.928. To `CC[C@H](C)C(=O)O[C@H]1C[C@@H](C)C=C2C=C[C@H](C)[C@H](CC[C@@H]3C[C@@H](O)CC(=O)O3)[C@H]21` [Lovastatin] + CCN1C(=O)N(c2c(F)c(OC)cc(OC)c2F)Cc2cnc3[nH]c(CN4CCOCC4)cc3c21 [pemigatinib] belongs 0.986.
